Experimental data as given in PubChem BioAssay AID1508624 (National Center for Advancing Translational Sciences (NCATS), 2021).
In all, about 48,000 compounds went through this assay and about 120 (0.25%) were called active. About 4% were inconclusive and are not listed. The call rests on the fitted dose curve; in most records, active means well fitted activation curve with a large enough effect; inconclusive means small, poorly fitted or top-dose-only effect, or another doubt; inactive means no such curve, though single readings can be large or run the other way. The list shows a part of the results.

Assay: Primary qHTS for Identification of Small Molecule Activators of Huntingtin-Antisense Promoter Activity; further: nearly all actives have a fitted effect of over 55% in size
Details: HEK293 HTT-AS promoter firefly luciferase reporter, 24 h; series mostly up to 57.5 µM; activity change, positive = activation: at the top concentration
How it was run: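 HEK293 cells carrying firefly luciferase reporters were seeded at 2,500 per well in Opti-MEM and cultured for 24 h. They were then treated with compounds at up to 57.5 uM final for 24 h at 37 degrees C before Dual-Glo luminescence readout.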

Activity change, positive = activation, inactive:
CC(N[C@H]1CCCC[C@H]1NC(=O)c1ccc(Cl)cc1)c1cccc2ccccc12 (stereo not given in full) -26.2%
CCc1ccc(NC(=O)Cn2c(=O)n(-c3cc(C)cc(C)c3)c(=O)c3oc4ccccc4c32)cc1 -21.3%
COC(=O)c1ccccc1NC(=O)C1=C(C)C(=O)OC12CCC(C)CC2 (stereo not given) -18%
Cc1ccc(CSc2oc(-c3cccs3)nc2S(=O)(=O)c2ccc(C)cc2)cc1 -2.61%
COC(=O)CC1Oc2ccc(C)cc2-n2cc(-c3ccc(C)cc3)nc21 (stereo not given) -24.6%
Cc1ccc(-n2nc3c(=O)n(CCCC(=O)NC(C)c4ccccc4)nc(C)c3c2C)cc1 (stereo not given) 3.57%
CC(C)CC(=O)Nc1nnc(S(=O)(=O)N2CCc3ccccc32)s1 -13.7%
Cc1ccc2oc(C(=O)Nc3sc4c(c3C(=O)NCc3cccnc3)CCCC4)cc(=O)c2c1 6.67% [at 11.5 µM, percent change from vehicle, -100% = no light]
CCCN(CCC)C(=O)Cn1c(=O)n(Cc2ccc(C(=O)NCCc3ccc(Cl)cc3)cc2)c(=O)c2ccccc21 -19.7%
COc1ccccc1Cn1cc(C(=O)c2ccc(C)cc2)c(=O)c2cc(F)cc(F)c21 -6.7%
CCc1cccc(NC(=O)Cn2nc3c4cc(F)ccc4n(Cc4cccc(C)c4)cc-3c2=O)c1 -13.7%
CCc1ccccc1N1C(=O)N(CC(=O)c2ccc(OC)cc2)c2ccccc2S1(=O)=O -26.4%
CC(C)Oc1ccc(C(=O)Nc2nonc2-c2ccc(OC(C)C)cc2)cc1 -3.06%
COC(=O)CCN(C(=O)C1CCN(S(=O)(=O)c2c(C)noc2/C=C/c2ccccc2F)CC1)c1ccccc1 -1.89%
CCCNC(=O)c1cnc2c(-c3ccc(OCC)c(OCC)c3)c(C)nn2c1-c1ccccc1 -27.6%
COc1cc(NC(=O)CC(c2cccs2)N2Cc3ccccc3C2=O)cc(OC)c1OC (stereo not given) -13.4%
CCN(CCCNC(=O)Cn1ncc2c([nH]c3ccc(C)cc32)c1=O)Cc1ccccc1 -9.61%
CC(C)n1c(=N)c(C(=O)NC2CCCCC2)cc2c(=O)n3ccccc3nc21 0%
Clc1cccc(CSc2nnc(C3CCNCC3)o2)c1 2.18%
Cc1cccc(CNC(=O)c2cnc3sc(N4CCCCCC4)nn3c2=O)c1 -10.9%
COc1ccc(-c2nsc(NC(=O)c3oc4cc(C)c(C)cc4c3C)n2)cc1 -8.82%
Cc1ccc(N(Cc2cccs2)C(=O)COc2cccc(C)c2)cc1 -27.9%
CC(=O)c1ccc(NC(=O)Cn2c(=O)n(Cc3ccco3)c(=O)c3sc4ccccc4c32)cc1 -14.4%
Cc1nn2c(=O)cc(COC(=O)CNC(=O)c3ccc(F)cc3)nc2s1 -4.64%
COc1ccc(C2=NC(C)(C)N(CC(=O)Nc3ccc(F)c(F)c3)C2=O)cc1 -25.1%
CCN1CCN(c2cc(C)c3cc(NC(=O)c4cc(Cl)ccc4OC)ccc3n2)CC1 -8.98%
Cc1ccc(-n2ncc(C(=O)NCCCN3CCCCC3)c2C2CCN(C(=O)OC(C)(C)C)CC2)cc1 -21.4%
COc1cccc(OC)c1C(=O)Nc1ccc(S(=O)(=O)Nc2nccc(C)n2)cc1 -5.58% [at 11.5 µM, percent change from vehicle, -100% = no light]
CCOC(=O)c1c(C)n(-c2ccccc2)c2ccc(OC(=O)c3ccccc3NC(=O)C(C)(C)C)cc12 -66.3%
Cc1ccc(NC(=O)c2c(C)nc3sc(C(=O)Nc4ccc(F)cc4)c(N)c3c2-c2ccccc2Cl)c(C)c1 0%
COc1ccccc1NS(=O)(=O)c1cc2c(cc1Cl)NC(=O)CO2 -24.2%
O=C1CN(C(=O)Nc2ccccc2C(F)(F)F)C(c2ccccc2)c2c(sc3c2CCCC3)N1 (stereo not given) -40.3%
CCOc1ccc(CCNC(=O)CSc2cc(=O)n(C)c3ccc(Cl)cc23)cc1OCC -19.1%
CCCc1cnc2c(c1SCc1ccc(C(F)(F)F)cc1)c(=O)n(C)c(=O)n2C -35.6%
CC(C)Oc1ccc(CNC(=O)c2ccc(Cn3c(=O)c4cccn4c4cccnc43)cc2)cc1 -9.13%
CCN1C(=O)C2(c3ccccc31)c1c(oc3ccc(F)cc3c1=O)C(=O)N2CCCOC (stereo not given) -12.8%
Cc1ccc(NC(=O)CSc2ccc(-c3sc(-c4ccccc4)nc3C)nn2)cc1F -1.92%
Cc1cccc(N2CCN(C(=O)CCSCc3ccccc3F)CC2)c1C 14%
COc1ccccc1N1CCN(C(=O)Cn2ncc3c(=O)oc4ccc(C)cc4c32)CC1 -8.79%
CN(C)S(=O)(=O)c1ccc(C(=O)Nc2ccc(-n3nncc3-c3ccccc3)cc2)cc1 -20.4%
CCOc1ccc(S(=O)(=O)N(CC(=O)NCCc2ccc(OC)c(OC)c2)c2ccccc2)cc1 -46.1%
COc1ccc(NC(=O)CN2C(=O)CSc3ccc(S(=O)(=O)N4CCCC4)cc32)cc1OC 0%
Cc1ccccc1Cn1c(CN2CCC(C(=O)NCCN(C)C)CC2)cc2ccccc21 -11.8%
Cc1ccccc1NC(=O)CN1C(=O)C(C)(C)c2ccccc21 6.87% [at 11.5 µM, percent change from vehicle, -100% = no light]
COc1cccc(NC(=O)c2cc3c(=O)n(C)c4ccccc4c3n2C)c1 1.88%
CCCCNC(=O)c1cnn2c(C)c(Cc3c(F)cccc3Cl)c(C)nc12 0%
O=C1c2c(O)cccc2[C@@H]([C@@H]2O[C@H](CO)[C@@H](O)[C@H](O)[C@H]2O)c2cc(CO)cc(O)c21 -9.73%
COc1ccc(OC)c(CCNC(=O)c2c(C)oc3ncn(C)c(=O)c23)c1 -1.16%
Cc1cccc(C)c1NC(=O)Cn1c(=O)n(CCC(=O)NCc2ccccc2Cl)c(=O)c2sccc21 4.47%
O=C(O)c1cc(-c2ccc(C(F)(F)F)cc2)nc2n[nH]c(-c3ccccc3)c12 20.1%
CCc1ccc(S(=O)(=O)c2cn(CC)c3cc(N4CCOCC4)c(F)cc3c2=O)cc1 -26%
CC(=O)c1ccc(NC(=O)Cn2cc3c(n2)CCCC3)cc1 -12.3%
CCOc1ccc(CN2CCN(c3ncnc4sc5c(c34)CC(C)CC5)CC2)cc1 (stereo not given) -4.59% [at 11.5 µM, percent change from vehicle, -100% = no light]
COc1ccccc1C(=O)Nc1nnc(S(=O)(=O)N(C)c2ccc(Cl)cc2)s1 1.96%
COc1ccc(Cl)cc1NC(=O)c1ccc2c(c1)CCCN2S(C)(=O)=O 6.35%
CCOc1ccc2c(c1)c(=O)c(S(=O)(=O)c1ccccc1)cn2CC(=O)Nc1ccccc1OC -3.5%
Cc1ccc(CNC(=O)C2CCN(S(=O)(=O)c3ccc4c(c3)CCCN4C(=O)C3CCC3)CC2)cc1 -44.5%
Cc1nc(-c2ccccc2)sc1CCNS(=O)(=O)c1ccccc1 -7.87%
O=C(NCCSc1c(-c2ccccc2)[nH]c2ccccc12)c1ccc(S(=O)(=O)N2CCOCC2)cc1 -29.3%
COC(=O)c1ccc(NC(=O)CSc2nc(=O)[nH]c3c2CCCC3)cc1 -11.6%
CCOC(=O)COc1ccc([N+](=O)[O-])cc1-c1ccnc2cc(-c3ccc(Cl)cc3)nn12 -4.58%
CCc1ccc(CN(Cc2ccco2)c2cnc(S(C)(=O)=O)nc2C(=O)Nc2cccc(C)c2)cc1 -25.5%
CN(C)c1ccc(C(CNC(=O)c2ccccc2)N2CCc3ccccc32)cc1 (stereo not given) 9.21%
CCC1=Nc2cc(C(=O)NCCCOC)ccc2Sc2ccc(Br)cc21 -40.2%
CC(C)CC(=O)Nc1cccc(-c2nc3ccccc3[nH]2)c1 20.3%
Cc1cccc(-c2noc(-c3ccccc3OCC(=O)Nc3ccc([N+](=O)[O-])cc3)n2)c1 -4.89%
COc1ccccc1CNc1nc(-c2ccco2)nn1S(=O)(=O)c1ccc2ccccc2c1 -7.86%
COCCCNC(=O)c1oc2c(c1C)-c1nn(Cc3ccccc3Cl)cc1CC2 -35.7%
CNC(=O)C1CCC(Cn2c(=O)c3sccc3n(CC(=O)NCc3ccccc3)c2=O)CC1 (stereo not given) -16.1%
Cc1ccccc1C(=O)Nc1sc2c(c1C(=O)NCc1ccco1)CCC(C(C)(C)C)C2 (stereo not given) -18.3%
Cc1ccc(SCCNC(=O)CN(c2ccccc2)S(=O)(=O)N(C)C)cc1 -16.7%
Cc1ccc(Cl)cc1NC(=O)c1cnc(N2CCCCC2)c2ccccc12 -20.9%
O=C(Cn1c(SCC(=O)Nc2ccc(F)cc2)nc2ccccc21)NCc1ccc(F)cc1 -6.93%
N#Cc1ccc(C(=O)Nc2cc3nn(-c4ccccc4)nc3cc2Cl)c(F)c1 13.4%
CCOC(=O)C1CCN(S(=O)(=O)c2cc(Br)cc3c2N(C(=O)CC)CC3)CC1 -10.4%
CCCC(=O)NCC1(N(C)C)CCCCC1 -2.52%
COc1ccc(NC(=O)C(=O)NCCc2csc(-c3ccc(Cl)cc3)n2)cc1OC -5.78%
COc1ccccc1NC(=O)C(=O)NCC(c1ccc2c(c1)OCO2)N1CCN(C)CC1 (stereo not given) -2.99%
CCN1CCN(c2ncc3c(n2)CCN(Cc2cc(F)cc(F)c2)C3)CC1 -21.5%
COc1ccc(-c2nc3scc(CCNS(=O)(=O)c4ccc(C)cc4)n3n2)cc1 -27.8%
Cn1c(=NC(=O)c2ccc(S(=O)(=O)N3CCCc4ccccc43)cc2)sc2cc(F)ccc21 -24.1%
CCCCCCCC/C=C/C(=O)O -1.61%
CC(C)OCCCn1c(=O)c2ccccc2n2c(-c3ccc(F)cc3)nnc12 -6.96%
COc1ccc(S(=O)(=O)N(CC(=O)Nc2ccccc2Br)Cc2ccccc2)cc1 -23.7%
Cc1cccc(C(=O)Nc2c(-c3ccccc3)nc3cc(C)ccn23)c1 -2.02%
Cc1ccc(S(=O)(=O)NC(=O)NC2CCCC2)cc1 -3.36%
Cc1ccc(CNS(=O)(=O)c2cc3[nH]c(=O)c(=O)[nH]c3cc2C)cc1 -9.56%
Cc1c(C(=O)NCc2cccc(Cl)c2)sc2nc3n(c(=O)c12)CCC3 -1.96%
Cc1cn2c(=O)cc(COc3ccccc3NC(=O)c3ccco3)nc2s1 -0.526%
Cc1ccc(S(=O)(=O)NC2(C(F)(F)F)C(=O)Nc3c2c(=O)[nH]c(=O)n3-c2ccccc2)cc1 (stereo not given) -3.4%
